Source: PubChem BioAssay AID360 (National Center for Advancing Translational Sciences (NCATS), 2006)
About 550 (1.1%) of roughly 48,000 compounds were called active. Inconclusive results (about 4%) are left out. No stated cut-off is given here; in the data, active means potency below about 15 µM; inconclusive means mostly about 16 µM to 33 µM; inactive means weaker than that. Some of the results follow.

biological target: Lysosomal acid glucosylceramidase (Homo sapiens) (UniProt P04062); assay: Glucocerebrosidase; settings: purified enzyme, resorufin glucoside fluorescence (screen aimed at inhibitors), 20 min;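 further: the screen sought inhibitors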
Sequence of UniProt P04062 (P04062 whole entry, looked up): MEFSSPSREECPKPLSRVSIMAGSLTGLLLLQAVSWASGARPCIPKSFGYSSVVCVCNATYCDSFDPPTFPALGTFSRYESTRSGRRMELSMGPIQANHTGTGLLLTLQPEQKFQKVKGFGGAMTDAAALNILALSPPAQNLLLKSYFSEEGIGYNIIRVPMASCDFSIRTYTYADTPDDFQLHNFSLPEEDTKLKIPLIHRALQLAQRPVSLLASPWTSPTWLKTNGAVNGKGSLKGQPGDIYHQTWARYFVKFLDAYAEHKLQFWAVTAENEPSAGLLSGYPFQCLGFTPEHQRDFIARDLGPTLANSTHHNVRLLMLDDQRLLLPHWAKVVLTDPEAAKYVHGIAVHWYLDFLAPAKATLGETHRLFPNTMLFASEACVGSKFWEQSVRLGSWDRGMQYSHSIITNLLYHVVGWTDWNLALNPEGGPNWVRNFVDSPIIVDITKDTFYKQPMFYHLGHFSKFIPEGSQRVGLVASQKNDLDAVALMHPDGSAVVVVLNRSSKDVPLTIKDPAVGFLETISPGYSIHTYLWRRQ
Outline: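 Compounds titrated against 0.2 nM normal enzyme, 30 uM resorufin beta-D-glucopyranoside substrate, citrate/phosphate buffer with taurocholate and tween-20, pH 5.9. Reaction ran 20 min at room temperature; fluorescence (Ex 548/Em 600) gave AC50.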
Potency means the concentration at half of the fitted maximal effect.

Potency, inactive:
CCOC(=O)c1cn(CC)c2cc(N3CCCCC3)c(F)cc2c1=O > 76.9 µM
CC(C)N(C(=O)COC(=O)c1ccc(O)cc1)C(C)C > 76.9 µM
CC1=C(C(N)=O)C(c2cccnc2)n2nc(SCc3ccccc3Cl)nc2N1 (stereo not given) > 76.9 µM
O=c1oc2c(CN3CCCCC3)c(O)ccc2cc1-c1nc2ccccc2[nH]1 > 76.9 µM
Cn1nnc2cc(C(=O)N3CCC(c4ccccc4)C3)ccc21 (stereo not given) > 76.9 µM
Cc1nc2cc(N3CCOCC3)c(NC(=O)C3CC3)cc2c(=O)n1Cc1ccccc1 > 76.9 µM
COc1ccc(S(=O)(=O)N2CCCN(CC(=O)Nc3cc(NC(C)=O)ccc3OC)CC2)cc1 > 76.9 µM
O=C(CCCCCN1C(=O)c2ccccc2C1=O)Nc1ccc(S(=O)(=O)N2CCCCC2)cc1 > 76.9 µM
COC(=O)Cc1n[nH]c(=S)[nH]c1=O > 76.9 µM
COc1cc2c(cc1OC)-c1cc(N3CCCc4ccccc43)nc(=O)n1CC2 > 76.9 µM
CSc1ccc(NC(=O)NCCCN2CCN(c3ccccc3F)CC2)cc1 > 76.9 µM
CCN(CC)S(=O)(=O)c1ccc(Cl)c(C(=O)NCC2CCCO2)c1 (stereo not given) > 76.9 µM
O=C(NC1CCCC1)C1CCCN1C(=O)Nc1ccccc1Cl (stereo not given) > 76.9 µM
COc1ccc(-c2ocnc2C(=O)Nc2ccccc2N2CCCCC2)cc1 > 76.9 µM
COc1cc(C(=O)O)ccc1OC(C)=O
O=C(CCc1nc(-c2ccccc2F)no1)NCc1ccco1 > 76.9 µM
COc1cc(OC)cc(OCC(O)Cn2cnc(-c3ccccc3)c2)c1 (stereo not given) > 76.9 µM
O=C(CN(Cc1cccs1)C(=O)CNS(=O)(=O)c1ccc(F)cc1)NCc1ccco1 > 76.9 µM
Cn1c(=O)[nH]c(=O)c2c1nc(Sc1nc3ccccc3s1)n2Cc1ccccc1 > 76.9 µM
CCCn1c(=S)[nH]c2cc(C(=O)N3CCN(c4ccccc4OC)CC3)ccc2c1=O > 76.9 µM
COc1ccc(NC(=O)C2CCCN(S(=O)(=O)c3c(C)n[nH]c3C)C2)c(OC)c1 (stereo not given) > 76.9 µM
O=C(CSc1nnc(-c2ccccc2)o1)NC1CCCCC1 > 76.9 µM
Cc1ccc(-c2csc3nnc(SCC(=O)Nc4nsc(-c5ccccc5)n4)n23)cc1
CCCc1nc2ccccc2c(=O)n1NC(=O)c1c(O)c2cccc3c2n(c1=O)CCC3 > 76.9 µM
CC1(C)CC(=O)C(CC(=O)Nc2ccc(S(N)(=O)=O)cc2)=C(O)C1 > 76.9 µM
CN1CCC(OC(=O)C23CCC(C)(C(=O)O2)C3(C)C)CC1 (stereo not given) > 76.9 µM
Cc1cc(-c2nc3ncccc3o2)ccc1N > 76.9 µM
COc1ccc(CC(=O)OCC(=O)Nc2c(C)n(C)n(-c3ccccc3)c2=O)cc1 > 76.9 µM
O=C(CC1=NC2(CCCC2)Cc2ccccc21)N1CCOCC1 > 76.9 µM
CC(C)(C)CC(=O)N1CCC(c2nc3c(nnn3Cc3c(F)cccc3Cl)c(=O)[nH]2)CC1
COC(=O)c1ccc(NC(=O)CN2CCOCC2)cc1 > 76.9 µM
CCN1CC2CCCC3(C1)C(=O)NC1(CCCCC1)N=C23 (stereo not given) > 76.9 µM
CCN(CC(=O)Nc1ccc(OC)c(OC)c1)S(=O)(=O)c1ccc(C)cc1 > 76.9 µM
COc1ccccc1N(C)S(=O)(=O)c1ccc(C(=O)OCC(=O)NCc2ccco2)cc1 > 76.9 µM
CCOCCCNC(=O)C1c2ccccc2C(=O)N2CCc3ccccc3C12 (stereo not given) > 76.9 µM
COc1cc2cc(CN(CCCO)S(=O)(=O)c3ccccc3)c(=O)[nH]c2cc1OC > 76.9 µM
Cn1c(=O)cc(OCC(=O)NCc2ccccn2)c2ccccc21 > 76.9 µM
COc1ccc(CCNC(=O)CN(C2CCCCC2)S(C)(=O)=O)cc1OC > 76.9 µM
N#Cc1cc2c(=O)n3ccccc3nc2n(Cc2cccnc2)c1=O > 76.9 µM
Cc1cccc(CCNC(=O)C2CCCN(S(=O)(=O)c3cccc4nsnc34)C2)c1 (stereo not given) > 76.9 µM
CC1CCCCC1NC(=O)CSc1nnc(COc2ccccc2Cl)o1 (stereo not given) > 76.9 µM
CCOc1ccc(C2=Nn3c(nnc3-c3ccccc3)SC2)cc1Cl > 76.9 µM
COc1ccccc1NC(=O)CC(NCc1ccccc1)C(=O)O (stereo not given) > 76.9 µM
Cc1nc2c3cnn(-c4ccc(C)c(C)c4)c3ncn2n1 > 76.9 µM
Cc1nnc(NC(=O)C2(c3ccccc3)CCOCC2)s1 > 76.9 µM
CCCOc1ccc(N2C(=O)CC(N3CCCC(C(=O)N4CCCC4)C3)C2=O)cc1 (stereo not given) > 76.9 µM
Cc1cccc(Cn2cnc3c(nnn3Cc3ccc(F)cc3)c2=O)c1 > 76.9 µM
Cc1ccc(-n2ncc(C#N)c2/N=C/N2CCOCC2)cc1 > 76.9 µM
COCCN1C(=O)C(CC(=O)Nc2ccc(C(C)=O)cc2)SC1=Nc1ccccc1 (stereo not given) > 76.9 µM
COc1ccc(Nc2nnc(Cc3ccc(Cl)cc3)c(=O)[nH]2)c(OC)c1 > 76.9 µM
Cc1cc(C)c2c(CC(=O)Nc3ccc(Cl)cn3)coc2c1 > 76.9 µM
Cc1cc(=O)[nH]c(SCc2nc3ncccn3c2Br)n1 > 76.9 µM
Cc1ccc(C(=O)Nc2nnc(-c3cccs3)s2)cc1C > 76.9 µM
CCC(=O)Nc1ccc(S(=O)(=O)Nc2cccnc2)cc1 > 76.9 µM
Cn1c(=O)c2c(nc(NCc3ccco3)n2C)n(C)c1=O > 76.9 µM
CCCc1ccc(C(C)NC(=O)c2cnccn2)cc1 (stereo not given) > 76.9 µM
CN(C(=O)CSc1nnnn1-c1ccccc1)C1CCCCC1 > 76.9 µM
Cn1c(SC/C=C/c2ccccc2)nnc1-c1cccs1 > 76.9 µM
CC1Oc2ccccc2N(CC(=O)NCc2cccs2)C1=O (stereo not given) > 76.9 µM
O=C(OCC(=O)N1CCCC1)c1cccs1 > 76.9 µM
O=C(NC1CCCCC1)N1CCN(Cc2nc3ccccc3c(=O)[nH]2)CC1 > 76.9 µM
COCc1nnc(NS(=O)(=O)c2ccc(Br)cc2)s1 > 76.9 µM
Cc1ccc(CN2CCSc3ccc(C(=O)N4CCN(c5ncccn5)CC4)cc32)cc1 > 76.9 µM
O=C1N(c2ccccc2)C2CS(=O)(=O)CC2N1c1ccc(Br)cc1 (stereo not given) > 76.9 µM
O=C(Cc1c(O)c2ccccc2[nH]c1=O)NCc1ccccc1F > 76.9 µM
COC(=O)Cc1cc(=O)n(-c2nc3ccccc3[nH]2)[nH]1 > 76.9 µM
O=C(CC1Nc2ccccc2NC1=O)NCc1cccnc1 (stereo not given) > 76.9 µM
O=c1c2ccccc2c(C=Nc2ccc(Cl)cn2)c(O)n1-c1cc(Cl)ccc1N1CCOCC1 > 76.9 µM
COc1ccc(CCn2c(=O)[nH]c3cc(C(=O)NCCCN4CCOCC4)ccc3c2=O)cc1OC > 76.9 µM
COC(=O)CN1C(=O)C(O)(CC(=O)c2ccc(C)cc2)c2ccccc21 (stereo not given) > 76.9 µM
O=C(Cn1c(=S)nc2ccccn21)N1CCc2ccccc2C1 > 76.9 µM
CSc1ccccc1C(=O)Nc1cccc(C(C)O)c1 (stereo not given) > 76.9 µM
O=C(O)CCNS(=O)(=O)c1ccc2c(c1)Cc1ccccc1-2 > 76.9 µM
CCC(=O)NCCC(c1ccco1)c1ccccc1OC (stereo not given) > 76.9 µM
O=C(CCS(=O)(=O)c1cccc2nonc12)NCCc1ccccc1 > 76.9 µM
CCOc1ccc(NC(=O)CSc2nnc(-c3ccccc3Cl)n2Cc2ccco2)cc1 > 76.9 µM
Cc1nc2c(sc3nc4c(cc32)COC(C)(C)C4)c(=O)n1CC(=O)NCc1ccco1 > 76.9 µM
CN(c1ccc(C(=O)NC2CC2)cc1)S(=O)(=O)c1ccccc1 > 76.9 µM
CCOc1ccccc1NC1c2ccccc2C(=O)N1c1cccnc1 (stereo not given) > 76.9 µM
Cc1noc(/C=C/N(C)C)c1S(=O)(=O)N(C)CC(=O)N1CCc2ccccc21 > 76.9 µM
Cc1cnc(C(=O)OCC(=O)NC2CCCCC2)cn1 > 76.9 µM
O=C(Nc1ccc(Cn2nnc3ccccc32)cc1)c1ccco1 > 76.9 µM
CCOC(=O)c1sc(=S)n(C)c1N > 76.9 µM
Cc1ccc(SCc2nc(-c3ccccc3)no2)cc1 > 76.9 µM
CCOc1ccc(OCC)c(S(=O)(=O)N2CCCCC2C)c1 (stereo not given) > 76.9 µM
Cc1onc(-c2ccccc2Cl)c1C(=O)NCc1ccc(N2CCCC2=O)cc1 > 76.9 µM
CC(=O)Nc1ccc2oc(-c3ccccc3Br)nc2c1 > 76.9 µM
CCCNc1ncccc1C(N)=O > 76.9 µM
O=C(c1ccccc1F)N1CCN(S(=O)(=O)c2ccc(S(=O)(=O)N3CCCCC3)cc2)CC1 > 76.9 µM
O=C(OCC1OC2C(Oc3nc(=O)ccn32)C1O)c1ccccc1 (stereo not given) > 76.9 µM
